In all, about 420,000 compounds went through this assay and about 50,000 (12%) were called active. This list was built around the results that the source calls inconclusive (neither active nor inactive); the mix of calls is not that of the screen. Calls come from the whole dose curve; as a rule, active = well fitted inhibition curve with a large enough effect; inconclusive = small, poorly fitted or top-dose-only effect; inactive = flat fitted curve, though single readings scatter. Potencies of inconclusive entries are left out as doubtful fits.
assay: qHTS for Inhibitors of human tyrosyl-DNA phosphodiesterase 1 (TDP1): qHTS in cells in presence of CPT; conditions: chicken DT40 Tdp1-/-;hTDP1 cells + 20 nM CPT, ATP luminescence, 48 h; series mostly up to 46.2 µM; note: nearly all actives have a fitted effect of over 55% in size
Summary of the method: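 Chicken DT40 Tdp1-/- cells complemented with human TDP1, 400 cells/well, exposed to compounds plus 20 nM camptothecin for at least 48 h at 37 C; viability read as ATP content by CellTiter-Glo luminescence.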
Potency is the fitted concentration of half-maximal effect; tags give direction and shape of the fitted curve.

| Structure (SMILES) | Potency |
| --- | --- |
| CCOC(=O)c1ccc(NC(=O)NC2CC3CCC(C2)N3Cc2nnnn2C(C)(C)C)cc1 (stereo not given) | inactive |
| CC(C)Oc1ccccc1-c1nc(SCC(=O)c2ccc(F)cc2)n[nH]1 | active: 20.6 µM |
| CC(=O)NC12CC3CC(C1)CC(C(=O)Nc1cccc(S(=O)(=O)N4CCCCCC4)c1)(C3)C2 | inconclusive [inhibitor, single point] |
| CC1(C(=O)NCC(F)(F)F)CCN1C(=O)C1(c2ccccc2)CC1 (stereo not given) | inactive |
| CN(CC(=O)Nc1ccccc1F)S(=O)(=O)c1ccc2c(c1)n(C)c(=O)c(=O)n2C | inactive |
| COc1ccc([N+](=O)[O-])cc1NC(=S)NC(NC(=O)C(c1ccccc1)c1ccccc1)C(Cl)(Cl)Cl (stereo not given) | inconclusive [inhibitor, single point] |
| Cc1ccc(Nc2c(-c3c[nH]c4ccccc34)nc3ccccn23)cc1 | active: 13 µM |
| c1ccc(-c2cc(-c3cc(-c4ccccc4)on3)no2)cc1 | inactive |
| CC(C)NC(=O)[C@H](CSCc1ccccc1)N1Cc2ccccc2C1=O | inactive |
| Cc1ccccc1NC(=O)c1cccc(S(=O)(=O)Oc2ccc([N+](=O)[O-])cc2)c1 | inconclusive [inhibitor, single point] |
| COc1ccc(OC)c(CCNC(=O)c2cc3c(s2)-c2c(C)cccc2OC3)c1 | active: 11.6 µM |
| Cc1cc(Cl)ccc1N=c1ssnc1Cl | active: 13 µM |
| O=C(Nc1ccccc1N1CCN(c2ccccc2)CC1)c1ccccc1F | inconclusive [inhibitor, single point] |
| CC(OC(=O)/C=C/c1ccc2ccccc2n1)C(=O)NCc1ccccc1 (stereo not given) | inconclusive [inhibitor, single point] |
| Cc1nnc(Sc2cc(C(=O)NCCCOC(C)C)c3ccccc3n2)s1 | inconclusive [inhibitor, single point] |
| Cc1ccc(-n2c(=O)c3sc4ccccc4c3n(CC(=O)NC3CCCC3)c2=O)cc1C | inconclusive [inhibitor, single point] |
| O=C(/C=C1\SC(=O)N(CC(=O)Nc2ccc(Cl)cc2)C1=O)Nc1ccc(F)cc1 | inconclusive [inhibitor, single point] |
| N=C(c1cccc([N+](=O)[O-])c1)N1CCCCCC1 | inactive |
| Cc1ccc(NC(=O)Cn2c(=O)n(Cc3ccccc3)c(=O)c3sc4ccccc4c32)cc1 | active: 5.8 µM |
| Cc1ccccc1Oc1nc2c(C)cccn2c(=O)c1/C=C(\C#N)C(=O)NC1CCS(=O)(=O)C1 (stereo not given) | active: 11.6 µM |
| CCOC(=O)C1(CCCc2ccccc2)CCN(C2CCN(C(C)=O)CC2)CC1 | inconclusive [inhibitor, single point] |
| O=c1oc2ccccc2c(NCCc2ccccc2)c1[N+](=O)[O-] | inconclusive [inhibitor, single point] |
| COc1cccc(Nc2ncc3nc(-c4ccc(F)cc4)c(=O)n(CCC#N)c3n2)c1 | inactive |

| Structure (SMILES) | Potency |
| --- | --- |
| CC1=[N+](CC(=O)c2ccccc2)CCn2cccc21 | inactive |
| CCOC(=O)C1=C(CN2CCCCCC2)NC(=O)NC1c1cccc([N+](=O)[O-])c1 (stereo not given) | inconclusive [inhibitor, partial curve, poor fit] |
| C=CCn1c(SCC(=O)N(C)C)nc2sc3c(c2c1=O)CCC3 | inconclusive [inhibitor, single point] |
| O=C(CN1C(=O)C2(SCC(=O)N2c2cccc(Cl)c2)c2ccccc21)NCCc1ccccc1 (stereo not given) | inconclusive [inhibitor, single point] |
| CCOc1ccc(NC(=O)c2c(Nc3ccccc3C)sc(C(=O)c3ccccc3)c2N)cc1 | inconclusive [inhibitor, single point] |
| CCCCCC(=O)Nc1ccccc1N1CCN(c2ccccc2)CC1 | inconclusive [inhibitor, single point] |
| COc1ccc(OC)c(/C=C2\NC(=O)NC2=O)c1 | inconclusive [inhibitor, single point] |
| CCS(=O)(=O)c1ncc(N(Cc2ccccc2)Cc2ccco2)c(C(=O)Nc2cccc(Cl)c2C)n1 | inconclusive [inhibitor, single point] |
| COc1ccccc1N(CC(=O)N1CCN(c2ccccc2)CC1)S(=O)(=O)c1ccc(C)cc1 | active: 18.4 µM |
| CCc1ccc(C(O)c2ncc(-c3cccc(C)c3)[nH]2)cc1 (stereo not given) | inconclusive [inhibitor, single point] |
| CCCCCCC(=O)N=Nc1c(O)[nH]c2ccc([N+](=O)[O-])cc12 | inconclusive [inhibitor, single point] |
| Cc1sc(NC(=O)CSc2ncn(-c3ccccc3)n2)nc1-c1ccccc1 | inconclusive [inhibitor, single point] |
| O=C(CN1C(=O)NC2(CCCC2)C1=O)OCc1cccc(Br)c1 | inconclusive [inhibitor, single point] |
| Oc1ccc(O)c(Cc2nc3ccccc3[nH]2)c1 | inconclusive [inhibitor, single point] |
| Cc1ccc(NC(=O)c2ccc(F)cc2)cc1S(=O)(=O)N1CCCCCC1 | inconclusive [inhibitor, single point] |
| C=Cc1cccc(NC(=O)c2ccc(NC(=O)c3ccco3)cc2)c1 | active: 14.6 µM |
| COc1cccc2cc(/C(C)=N/NC(=O)c3ccco3)oc12 | inconclusive [inhibitor, single point] |
| CCOc1ccc(CNC(=O)c2ccc3c(c2)c(C)c(C)n3Cc2ccccc2)cc1OC | active: 11.6 µM |
| Cc1ccc(C)c(NC(=O)CN(C)C(=O)c2cc(-c3cccs3)nn2-c2ccccc2)c1 | inactive |
| Cc1ccc(S(=O)(=O)NCC2CCCO2)cc1 (stereo not given) | inactive |
| COc1ccc(-c2nc3cnc(N(C)C)nc3n(CCc3ccccc3)c2=O)cc1 | inactive |
| CCOC(=O)c1csc(-c2csc(CCNC(=O)c3ccccc3)n2)n1 | inconclusive [inhibitor, single point] |
